The whole screen tested about 340,000 compounds, of which about 6,900 (2%) were called active. No stated cut-off is given here; in the data, active means inhibition above about 30%; inactive means below that, where a call was filed. The list shows a part of the results, in another mix than the full data. Where no call is shown, the source filed none.
The compounds below were run against D(2) dopamine receptor (Homo sapiens) (UniProt P14416) (assay: HTS Assay for Allosteric Antagonists of the Human D2 Dopamine Receptor: Primary Screen for Antagonists). Conditions: HEK293 TREx D2 cells, calcium flux, dopamine EC80; at 10 µM; stronger effect = higher value.
How it was run: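 Overnight-induced (tetracycline, 30 C) HEK293 T-REx cells carrying force-coupled D2 receive a no-wash calcium dye, then compound, then EC80 dopamine at 180 s; signals are read kinetically throughout.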
Further: 0% is about no effect.

Chain of UniProt P14416 (P14416 whole entry, looked up): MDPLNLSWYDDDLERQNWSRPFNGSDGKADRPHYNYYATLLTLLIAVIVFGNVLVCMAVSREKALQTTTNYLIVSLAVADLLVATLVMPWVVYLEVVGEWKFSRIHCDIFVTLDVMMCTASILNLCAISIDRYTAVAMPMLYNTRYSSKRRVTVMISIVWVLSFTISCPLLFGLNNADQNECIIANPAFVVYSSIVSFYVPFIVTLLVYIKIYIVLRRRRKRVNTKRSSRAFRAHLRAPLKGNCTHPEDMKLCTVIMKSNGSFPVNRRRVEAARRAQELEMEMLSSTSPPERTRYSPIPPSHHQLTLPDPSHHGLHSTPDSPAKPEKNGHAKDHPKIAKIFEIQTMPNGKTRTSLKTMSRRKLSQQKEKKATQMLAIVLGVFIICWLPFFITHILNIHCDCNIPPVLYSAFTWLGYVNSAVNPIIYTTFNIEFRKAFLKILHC

SMILES	inhibition
CN(Cc1ccccc1)S(=O)(=O)c1ccc(F)c(C(=O)Nc2cccc(Cl)c2Cl)c1	-19.6%
Cc1ccc(C(C)(C)C)c(OCC(=O)NCCc2nc3ccccc3[nH]2)c1	6.71%
CCN1CCN(c2ccc(NS(=O)(=O)c3c(C)nc4sccn4c3=O)cc2Cl)CC1	10.5%
COc1ccc(C(=O)CC2(O)C(=O)N(Cc3ccccc3Cl)c3ccccc32)cc1 (stereo not given)	9.82%
COc1ccc(CNC(=O)CCC(=O)N2CCSc3ccccc32)cc1	-4.01%
CCOc1ccc(-n2c(C)nc3cc(C(=O)NCCC4=CCCCC4)ccc32)cc1	-7.1%
CCOC(=O)c1ccc(NC(=O)C2=C(C)Nc3nc(SCc4ccc(Cl)cc4)nn3C2c2ccc(OC)cc2)cc1 (stereo not given)	-7.45%
COc1ccc(-c2nnc(SCC(=O)Nc3ccc(Cl)cc3)s2)cc1	-6.45%
CCOc1ccc(N2C(=O)CC(NC3CCN(C(=O)c4ccc(F)cc4)CC3)C2=O)cc1 (stereo not given)	active: 37.9%
COc1cccc(-c2cc(C(=O)Nc3cc(OC)c(OC)c(OC)c3)on2)c1	-24.1%
COc1cccc2c1cc1c(=O)n(CC(=O)N3CCN(c4cc(Cl)ccc4C)CC3)nc(C)n12	-2.58%
COc1ccc(-c2nc(Cn3c(SCc4ccc(C)cc4)nc4cccnc43)c(C)o2)cc1OC	-4.58%
CCC1CCCCN1CC(=O)N1CCCc2c1c(=O)oc1ccc(OCc3ccccc3)cc21 (stereo not given)	-9.5%
O=C(CCCn1c(=O)c2cccn2c2cccnc21)NCc1ccc(F)cc1	-1.08%
O=S(=O)(c1ccccc1)c1nc(-c2ccc(Cl)cc2Cl)oc1N1CCCCCC1	7.5%
COc1ccc(CNC(=O)Cn2nnc(-c3ccc(S(C)(=O)=O)cc3)n2)cc1	2.31%
COc1cc(NS(=O)(=O)c2ccc(NC(=O)/C(=C\c3ccccc3OC)NC(=O)c3ccccc3)cc2)nc(OC)n1	active: 32%
Cc1cc(C)cc(N2CCn3c2nc2c3c(=O)n(Cc3ccc(Cl)cc3)c(=O)n2C)c1	-6.86%
CC(C)c1ccc(CNc2nc(-c3ccco3)nn2S(=O)(=O)c2ccc3ccccc3c2)cc1	-8.36%
COc1cccc(CN(Cc2ccccc2F)S(=O)(=O)c2ccc(S(=O)(=O)NCc3ccccc3)cc2)c1	active: 43%
O=C(/C=C/Nc1ccc(F)cc1)c1ccc(Oc2ncccn2)cc1	active: 34.5%
Cc1nc(SCC(=O)NCc2ccco2)c2c3c(sc2n1)CCCC3	active: 36.3%
CC(C)c1ccccc1OCC(=O)N(C)CC(=O)Nc1ccc(F)cc1	active: 55.8%
Cc1ccc(Nc2c(-c3ccncc3)nc3ccc(C)cn23)cc1	1.51%

SMILES	inhibition
CCOc1ccc(OCC)c(S(=O)(=O)N2CCN(c3cccc(C)c3C)CC2)c1	-1.02%
CCOC(=O)C1(CCc2ccccc2)CCN(Cc2cccc3nccnc23)CC1	active: 65.3%
Cc1ccc(CN(C(=O)COc2cccc([N+](=O)[O-])c2)c2ccccn2)cc1	3.19%
CCOC(=O)C1CCN(c2ncnc3c2nnn3C)CC1	25.1%
CCCCNC(=O)CSc1nc2cc3c(cc2c(=O)n1CCCCCC(=O)NCc1ccc2c(c1)OCO2)OCO3	-18.8%
Cc1ccc(-n2c(SCC(=O)NCc3ccc(F)cc3)nc3c([nH]c4ccccc43)c2=O)cc1	-4.76%
Cc1ccc2oc3c(c(=O)c2c1)C(c1ccccc1F)N(CCCN1CCOCC1)C3=O (stereo not given)	-9.55%
COc1ccc(N(CC(=O)NCCc2ccccc2)S(=O)(=O)c2ccccc2)c(OC)c1	8.01%
Cc1cc(C)cc(NC(=O)CCc2c(C)nn(-c3ccc(N4CCCC4)nn3)c2C)c1	22.9%
COc1cc2c(cc1OC)C(COc1ccc(F)cc1)N(C(=O)Cc1ccc(F)cc1)CC2 (stereo not given)	9.63%
CCC(Sc1nc2cc(OC)c(OC)cc2c(=O)n1CCc1ccc(Cl)cc1)C(=O)NCCOC (stereo not given)	27.2%
Cc1cc(C)cc(OCC(=O)Nc2ccc(-c3nc4ccccc4s3)cc2)c1	-16.4%
COc1cc2nc(SCc3cccc(Cl)c3)n3nc(CCn4nc(C)cc4C)nc3c2cc1OC	-2.32%
Cn1nnc2c(N3CCN(c4ccccc4F)CC3)ncnc21	17.4%
CCOc1ccc(-c2cc(OC(=O)c3ccccc3)c3c(C)oc(C)c3c(=O)c2)cc1	-6.15%
Cc1ccccc1C(=O)Nc1cccc(C(=O)OCc2cc(=O)n3c4c(sc3n2)CCCC4)c1	-1.37%
O=C(CSc1nc2ccccc2n1Cc1ccccc1F)NCc1ccccc1	-14.1%
Cc1ccc(NC(=O)N(Cc2cn(C)c3ccccc23)C2CCCCC2)cc1C	8.4%
CC(C)NC(=O)c1ccc(-n2c(-c3ccccc3)cc3c2CCCCC3)cc1	-6.01%
COc1ccc(NC(=O)N2CCCC(C(=O)NC(C)C)C2)cc1 (stereo not given)	active: 32.7%
O=C(c1ccc2c(c1)OCO2)C1CCCN(C2CCN(CCc3ccccc3)CC2)C1 (stereo not given)	active: 69.8%
Nc1ncc(S(=O)(=O)NCc2ccc(Cl)cc2)cn1	3.61%
Cn1c(=O)n(C)c2cc(NS(=O)(=O)c3ccc(Cl)cc3)c(NCc3ccccc3)cc21	-0.547%
COc1cc(CNCCCSc2nnnn2C)cc(Br)c1OC	20.2%

SMILES	inhibition
Cc1ccc(-n2c3c(c(=O)[nH]c2=O)C(NC(=O)C(C)(C)C)(C(F)(F)F)C(=O)N3)cc1 (stereo not given)	-8.15%
O=C(Nc1cccc(F)c1)C1CCN(c2nc3ccccc3nc2C(F)(F)F)CC1	-3.89%
CCc1ccccc1-n1nnc(-c2nc(-c3ccccc3F)no2)c1C	-5.35%
COc1ccc(OC)c(NC(=O)CCCOc2cc(=O)n(C)c3ccccc23)c1	10.4%
COc1cccc(NC(=O)CSC2=Nc3ccccc3C3=NC(CCC(=O)NC4CCCCC4)C(=O)N23)c1 (stereo not given)	14.6%
COc1cccc2c1Oc1ncccc1N(C(=O)CCC(=O)NCc1ccc(OC(C)C)cc1)C2	9.61%
Cc1nn(CC(=O)NC(C)c2ccccc2)c(=O)c2cc3occc3n12 (stereo not given)	-1.06%
O=C(CSc1nc2c([nH]c3ccccc32)c(=O)n1-c1ccccc1)Nc1ccccc1C(F)(F)F	-2.3%
NC(=O)COc1ccc(-c2noc(COc3ccc(Cl)cc3)n2)cc1	-13.3%
COc1ccc(CCNC(=O)COC(=O)c2cccs2)cc1	active: 36.7%
CCOC(=O)C1=C(CN2CCN(c3ccc(Cl)cc3)CC2)NC(=O)NC1c1ccc(F)cc1 (stereo not given)	-16%
COc1ccc2c(c1)CC(C(=O)Nc1c(C)cc(C)cc1C)CO2 (stereo not given)	-12%
NS(=O)(=O)c1ccc(CCNC(=O)Cn2c(=O)c3cccn3c3ccc(F)cc32)cc1	4.63%
Cc1nn2c(=O)cc(COC(=O)c3ccccc3NC(=O)C3CCCCC3)nc2s1	-13.6%
CCOc1ccc(N(CC)S(=O)(=O)N2CCCC(C(=O)NCc3ccccc3OCC)C2)cc1 (stereo not given)	2.07%
COc1cc(-c2cc3n(C)c(C)c(CCC(=O)NC4CCC(C)CC4)c(=O)n3n2)cc(OC)c1OC (stereo not given)	9.41%
COc1cc(C(=O)N(CCCN(C)C)c2nc3c(OC)cccc3s2)cc(OC)c1OC	-13.1%
O=C(NC1CCCC1)c1ccc2c(c1)N(Cc1c(F)cccc1Cl)C(=O)c1ccccc1S2	-13.1%
Cc1ccc2c(c1)-c1nc(-c3ccccc3)cc(-c3ccccc3)c1CO2	13.6%
OCC1(Cc2ccccc2)CCN(Cc2cc3ccccc3o2)CC1	active: 94.6%
CSCCC(NS(=O)(=O)c1ccc2[nH]c(=O)c(=O)[nH]c2c1)C(=O)O (stereo not given)	active: 35.7%
COc1ccc(C(=O)Nc2ccc3c(c2)CCCN3S(=O)(=O)c2ccc(C)cc2)cc1	3%
CCCCN(CCCC)CCn1cnc2c([nH]c3ccc(OC)cc32)c1=O	21.1%
COc1ccc(NC(=O)c2oc3ccccc3c2NC(=O)c2cc(=O)c3ccccc3o2)cc1	13.7%

SMILES	inhibition
COc1ccc(CNC(=O)c2ccc(-c3nc(CSc4ccccc4)c(C)o3)cc2)cc1	0.341%
CCOc1ccc(CCNc2ncnc3onc(C)c23)cc1OCC	-12.9%
CCOC(=O)c1c(NC(=O)C(C)Oc2ccccc2F)sc(C(C)=O)c1C (stereo not given)	11.2%
COc1ccc(CCNC(=O)CCCCn2c(=O)c3ccccc3n(Cc3cccc(C)c3)c2=O)cc1OC	-5.61%
c1ccc(N=C(c2cccs2)N2CCOCC2)cc1	active: 31.8%
CCc1ccc(NC(=O)c2ccc(CNS(=O)(=O)c3ccc4c(c3)C(C)(C)C(=O)N4C)cc2)cc1	-0.884%
CCc1ccc(OCC(=O)Nc2c(C(=O)c3ccc(Br)cc3)oc3ccccc23)cc1	-0.345%
CCC(Oc1ccccc1)C(=O)Nc1nnc(S(=O)(=O)N2CCCC2)s1 (stereo not given)	3.97%
CCOc1cccc2sc(=NC(=O)c3ccc(S(=O)(=O)N4CCOCC4)cc3)n(C)c12	11.4%
CCn1cc(C(=O)N2CCN(c3ccccc3OC)CC2)c2cc(OC)c(OC)cc2c1=O	-3.41%
Cc1ccc(-c2ocnc2C(=O)Nc2ccccc2C(=O)N2CCCC2)cc1	active: 57.1%
Cc1ccc2nc3sc(C(=O)Nc4ccc(F)cc4)cc3cc2c1	9.08%
CCOC(=O)c1cc(S(=O)(=O)N2CCN(c3cccc(C)c3)C(C)C2)[nH]n1 (stereo not given)	13.4%
COc1ccc(N2CCN(C(=O)c3c(C)oc4ncn(CC(C)C)c(=O)c34)CC2)cc1	-11.3%
COC(=O)c1ccc(NC(=O)C(C)N2Cc3ccccc3C2=O)cc1 (stereo not given)	14.2%
CCC1=Nc2cc(C(=O)NC3CCCC3)ccc2Sc2ccc(Cl)cc21	6.72%
COc1cc(CNCCSc2nnnn2C)ccc1OCc1ccccc1	-11%
Cc1ccc(CNC(=O)c2cnc(N3CCCC3)nc2C)cc1	5.11%
CCn1c(=O)cc(OCC(=O)NCCCN2CCN(c3cccc(Cl)c3)CC2)c2ccccc21	active: 78.9%
Cc1cc(C)c2c(NC(=O)c3ccccc3Cl)c(C(=O)Nc3ccc(C)c(C)c3)sc2n1	5.09%
CCc1ccccc1NC(=O)c1nnn(CC(=O)Nc2c(C)cc(C)cc2C)c1N	2.48%
O=C(Cn1cccc1C(=O)c1ccccc1)NCc1ccc(Cl)cc1	1.3%
COc1ccc(NC(=O)CNC(=O)Cn2ccc3ccccc3c2=O)c(OC)c1	1.83%

— PubChem BioAssay AID485344 (National Center for Advancing Translational Sciences (NCATS), 2010)
